In EPA's CvTdb concentration-time database:
The source gives many values for each of these; only a part stands here.

Legend:
Assay in all cases: concentration in plasma after dosing
[1] = system: Rat
[2] = system: Rat; conditions: dosed: Potassium Perfluorobutane Sulfonate, 100 mg/kg, oral, Female, Harlan Sprague Dawley
[3] = system: Rat; conditions: dosed: Potassium Perfluorobutane Sulfonate, 100 mg/kg, oral, Male, Harlan Sprague Dawley
[4] = system: Rat; conditions: dosed: Potassium Perfluorobutane Sulfonate, 100 mg/kg, oral, Male, Harlan Sprague Dawley; remark: listed apart in the source
[5] = system: Rat; conditions: 1 h; dosed: Potassium Perfluorobutane Sulfonate; 20 mg/kg; oral; Male; Harlan Sprague Dawley
[6] = system: Rat; conditions: dosed: Potassium Perfluorobutane Sulfonate, 4 mg/kg, oral, Female, Harlan Sprague Dawley
[7] = system: Rat; conditions: dosed: Potassium Perfluorobutane Sulfonate, 4 mg/kg, oral, Female, Harlan Sprague Dawley; remark: listed apart in the source
[8] = system: Rat; conditions: 1.5 h; dosed: Potassium Perfluorobutane Sulfonate; 100 mg/kg; oral; Female; Harlan Sprague Dawley
[9] = system: Rat; conditions: dosed: Potassium Perfluorobutane Sulfonate, 20 mg/kg, oral, Female, Harlan Sprague Dawley
[10] = system: Rat; conditions: dosed: Dibromoacetic acid, 25 mg/kg, iv, Male, F344
[11] = system: Rat; conditions: dosed: Dibromoacetic acid, 25 mg/kg, iv, Female, F344
[12] = system: Rat; conditions: dosed: Dibromoacetic acid, 50 mg/kg, oral, Male, Harlan Sprague Dawley
[13] = system: Rat; conditions: 5 min; dosed: Dibromoacetic acid; 125 mg/kg; oral; Male; F344
[14] = system: Rat; conditions: 0.5 h; dosed: Dibromoacetic acid; 25 mg/kg; iv; Female; F344
[15] = system: Rat; conditions: dosed: Dibromoacetic acid, 50 mg/kg, oral, Female, Harlan Sprague Dawley
[16] = system: Rat; conditions: dosed: Dibromoacetic acid, 25 mg/kg, iv, Male, F344; remark: listed apart in the source
[17] = system: Rat; conditions: dosed: Dibromoacetic acid, 125 mg/kg, oral, Female, Harlan Sprague Dawley
[18] = system: Rat; conditions: dosed: Dibromoacetic acid, 50 mg/kg, oral, Male, Harlan Sprague Dawley; remark: listed apart in the source
[19] = system: Rat; conditions: 10 min; dosed: Dibromoacetic acid; 50 mg/kg; oral; Male; Harlan Sprague Dawley
[20] = system: Rat; conditions: 0.5 h; dosed: Dibromoacetic acid; 25 mg/kg; iv; Male; F344
[21] = system: Rat; conditions: dosed: Dibromoacetic acid, 125 mg/kg, oral, Female, Harlan Sprague Dawley; remark: listed apart in the source
[22] = system: Rat; conditions: dosed: Dibromoacetic acid, 50 mg/kg, oral, Female, Harlan Sprague Dawley; remark: listed apart in the source
[23] = system: Rat; conditions: dosed: Dibromoacetic acid, 125 mg/kg, oral, Male, F344

O=S(=O)([O-])C(F)(F)C(F)(F)C(F)(F)C(F)(F)F.[K+] [Potassium Perfluorobutane Sulfonate]
concentration in plasma [ng/mL], [1], dosed: Potassium Perfluorobutane Sulfonate, oral
Conditions | 4 mg/kg | 20 mg/kg | 100 mg/kg
0.25 h, Female, Harlan Sprague Dawley | 5690 | 22300 | 78600
0.25 h, Male, Harlan Sprague Dawley | – | – | 87800
0.5 h, Female, Harlan Sprague Dawley | 8210 | 29100 | 131000
0.5 h, Male, Harlan Sprague Dawley | – | 36400 | 174000
0.5 h, Male, Harlan Sprague Dawley - this seems too small | – | 53300 | –
0.75 h, Female, Harlan Sprague Dawley | 9550 | 43900 | 139000
0.75 h, Male, Harlan Sprague Dawley | – | 47800 | 274000
1 h, Female, Harlan Sprague Dawley | 6670 | 33300 | 129000
1 h, Male, Harlan Sprague Dawley | – | 57500 | 196000
1.5 h, Female, Harlan Sprague Dawley | 6760 | 26800 | 93400
1.5 h, Male, Harlan Sprague Dawley | – | – | 168000
3 h, Female, Harlan Sprague Dawley | 2960 | 11300 | 62600
3 h, Male, Harlan Sprague Dawley | – | 61300 | 117000
5 min, Female, Harlan Sprague Dawley | 1600 | 810 | 17100
5 min, Male, Harlan Sprague Dawley | – | 2480 | 31500
6 h, Female, Harlan Sprague Dawley | 838 | 1360 | 50500
6 h, Male, Harlan Sprague Dawley | – | 39200 | 96000
9 h, Female, Harlan Sprague Dawley | 280 | 384 | 2190
9 h, Male, Harlan Sprague Dawley | – | 16400 | 23300
12 h, Female, Harlan Sprague Dawley | 84.2 | 51.1 | 249
12 h, Male, Harlan Sprague Dawley | – | 7820 | 20500
24 h, Female, Harlan Sprague Dawley | 61 | – | –
24 h, Male, Harlan Sprague Dawley | – | – | 1020
48 h, Male, Harlan Sprague Dawley | – | – | 44.8

Conditions | concentration in plasma [ng/mL]
[2], 0.5 h | 171000
[2], 9 h | 6980
[3], 1 h | 205000
[3], 24 h | 2180
[4], 0.75 h | 181000
[4], 12 h | 21500
[6], 3 h | 4050
[6], 5 min | 1070
[7], 0.5 h | 10300
[7], 9 h | 45.4
[9], 0.25 h | 29400
[9], 24 h | 114

Conditions | concentration in plasma [ng/mL]
[5] | 69400
[8] | 83100

O=C(O)C(Br)Br [Dibromoacetic acid]
concentration in plasma [ng/mL], [1], dosed: Dibromoacetic acid
Conditions | Female | Male
0.2 h, 25 mg/kg, iv, F344 | 26400 | 30700
0.5 h, 25 mg/kg, iv, F344 | 10700 | 14100
0.5 h, 50 mg/kg, oral, Harlan Sprague Dawley | 20900 | 34400
0.5 h, 125 mg/kg, oral, F344 | – | 54700
0.5 h, 125 mg/kg, oral, Harlan Sprague Dawley | 71000 | –
0.75 h, 25 mg/kg, iv, F344 | 5380 | 4700
0.75 h, 50 mg/kg, oral, Harlan Sprague Dawley | 23500 | 23200
0.75 h, 125 mg/kg, oral, F344 | 76400 | 36700
0.75 h, 125 mg/kg, oral, Harlan Sprague Dawley | 118000 | –
1 h, 25 mg/kg, iv, F344 | 1920 | 2010
1 h, 50 mg/kg, oral, Harlan Sprague Dawley | 23600 | 31200
1 h, 125 mg/kg, oral, F344 | – | 75300
1 h, 125 mg/kg, oral, Harlan Sprague Dawley | 98000 | –
1.5 h, 50 mg/kg, oral, Harlan Sprague Dawley | 8890 | 10000
2 h, 50 mg/kg, oral, Harlan Sprague Dawley | 6560 | 8800
2 h, 125 mg/kg, oral, F344 | – | 32100
2 h, 125 mg/kg, oral, Harlan Sprague Dawley | 28800 | –
2 min, 25 mg/kg, iv, F344 | 63500 | 54300
3 h, 50 mg/kg, oral, F344 | 1660 | –
3 h, 50 mg/kg, oral, Harlan Sprague Dawley | 2860 | –
3 h, 125 mg/kg, oral, F344 | – | 14000
3 h, 125 mg/kg, oral, Harlan Sprague Dawley | 10700 | –
4 h, 50 mg/kg, oral, Harlan Sprague Dawley | 1690 | 1990
4 h, 125 mg/kg, oral, F344 | 9720 | 11000
4 h, 125 mg/kg, oral, Harlan Sprague Dawley | 1990 | –
5 min, 25 mg/kg, iv, F344 | 50000 | 46700
5 min, 50 mg/kg, oral, F344 | – | 9140
5 min, 125 mg/kg, oral, F344 | – | 45800
6 h, 50 mg/kg, oral, Harlan Sprague Dawley | 1260 | 123
6 h, 125 mg/kg, oral, F344 | – | 3840
6 h, 125 mg/kg, oral, Harlan Sprague Dawley | 3610 | –
7 min, 25 mg/kg, iv, F344 | 41900 | 44800
8 h, 125 mg/kg, oral, F344 | – | 299
10 min, 50 mg/kg, oral, F344 | 21200 | –
10 min, 50 mg/kg, oral, Harlan Sprague Dawley | 8500 | 17600
10 min, 125 mg/kg, oral, F344 | 57600 | 22900
20 min, 25 mg/kg, iv, F344 | 17800 | 18800
20 min, 50 mg/kg, oral, Harlan Sprague Dawley | 28500 | 43900
20 min, 125 mg/kg, oral, F344 | – | 67400
20 min, 125 mg/kg, oral, Harlan Sprague Dawley | 80100 | –
40 min, 25 mg/kg, iv, F344 | 5190 | 5190
50 min, 25 mg/kg, iv, F344 | 3680 | 4860
55 min, 25 mg/kg, iv, F344 | 2750 | 3750

Conditions | concentration in plasma [ng/mL]
[10], 0.75 h | 5340
[10], 5 min | 51900
[11], 0.2 h | 32000
[11], 55 min | 3080
[12], 0.75 h | 25600
[12], 4 h | 2020
[15], 0.75 h | 29500
[15], 4 h | 1700
[16], 7 min | 43200
[16], 50 min | 4140
[17], 0.5 h | 88600
[17], 6 h | 819
[18], 1.5 h | 10000
[18], 20 min | 42800
[21], 0.75 h | 88300
[21], 4 h | 9390
[22], 0.5 h | 33100
[22], 6 h | 312
[23], 1 h | 91400
[23], 2 h | 39000

Conditions | concentration in plasma [ng/mL]
[13] | 59200
[14] | 11400
[19] | 12100
[20] | 13900
